Assay results from ChEMBL document CHEMBL4888484, “Replenishing the malaria drug discovery pipeline: Screening and hit evaluation of the MMV Hit Generation Library 1 (HGL1) against asexual blood stage Plasmodium falciparum ,using a nano luciferase reporter read-out” (2022).
Hit rate of the full screen: of about 150,000 compounds, about 540 (0.36%) showed an effect of 50% or more. The list shows a part of the results.

test system: Plasmodium falciparum; assay: Primary screen in NF54 nanoGlo assay, in single point, at 2uM, 72h; a lower Z score goes with more inhibition; format: functional, Erythrocyte; details: timepoint 72 hour

Structure (SMILES)	% Inhibition [%]	Z score
Cc1nnc([C@@H]2CC3(CCN(C(=O)C(C)C)CC3)CN2C(=O)c2ccccc2)o1	-2	0.28
CC(C)CNC(=O)COc1ccccc1	-4	0.45
CC(CNC(=O)C1COCCN1CC1CCC1)c1nncn1C (stereo unspecified)	0	0.02
Cn1ccnc1C1CC(Nc2nc(C3CCCC3)ns2)CCO1 (stereo unspecified)	-9	0.91
COC(=O)C[C@H](C)NC(=O)CCNc1cc(C)cc(C)c1	3	-0.34
CCOc1ccc(C(CNS(=O)(=O)N2CC(C)OC(C)C2)c2c[nH]c3ccccc23)cc1OC (stereo unspecified)	-14	1.83
Cc1ccncc1CN(C)S(=O)(=O)C1CCC(C(F)(F)F)CC1 (stereo unspecified)	10	-1.34
O=S(=O)(NCc1cscn1)N1CCCC1	-4	0.81
CCn1nc([C@@H]2CCCCN2C(=O)c2ncccc2C)c2c1CCOC2	-4	0.38
CN(c1cccc2cccnc12)S(=O)(=O)c1cccc(C(=O)O)c1	-7	0.82
Cc1cc(C(=O)Nc2nnc(-c3cc(C)oc3C)o2)no1	-8	1.22
COc1ccc(C(C)N[C@@H]2C=C[C@H](CO)C2)c2ccccc12 (stereo partly specified)	-11	1.19
CC[C@H](NC(=O)N(Cc1ccccc1F)C1CCC1)c1nccs1	16	-1.57
O=C(c1ccc2nnnn2c1)N1CC=C(c2ccccc2)CC1	-16	1.83
OCCCN(CCO)c1nc(C2CC2)no1	-14	1.45
CC(C)(C)c1cc(C(=O)N2CCC(CN3CCCCC3)CC2)[nH]c(=O)n1	-6	1.02
O=C(c1cncn1-c1ccc(-c2ccc(F)c(F)c2)cc1)N1CCC(CCc2ccc(F)cc2)CC1	-11	1.77
COc1cc(CN2CC[C@H](N3CCOCC3)[C@H](CCCO)C2)ccc1F	4	-0.65
N#Cc1ccccc1CN1C[C@@H](CN2CCCCC2)[C@@H](CO)C1	3	-0.38
CCn1nc(C)cc1C(=O)OCCC(=O)NC	-4	0.52
Nc1c2c(-c3ccccc3F)nc(N3CCN(c4ccccc4)CC3)nc2nn1-c1ccc(Cl)c(Cl)c1	-8	0.96
COc1ccc2c(c1)CCCN(C(=O)CC1(O)CCCC1)C2	-6	0.9

Structure (SMILES)	% Inhibition [%]	Z score
CCn1cc(NC(=O)Cn2ncc(N(C)Cc3ccccc3)cc2=O)nn1	-15	1.43
Cn1cncc1CC(=O)N1C[C@H](C(=O)O)[C@@H](c2ccc(F)cc2F)C1	-4	0.56
O=C1C[C@H](C(=O)Nc2cccc(-c3ccccc3)c2)CN1	4	-0.42
Cc1ccc(NC(=O)N2CCCCC3CCCCC32)cc1 (stereo unspecified)	-1	0.19
O[C@H]1C[C@H](C(Nc2ccc(C(F)(F)F)cn2)c2ccccn2)C1 (stereo partly specified)	-10	1.13
CCCn1ncc(C(=O)N2CC[C@@]3(CCCN(Cc4cccc(C)c4)C3)C2)c1C	-6	0.82
CC1OC23CCCCC2C2(C#N)C(=N)N=C(O3)C12C#N (stereo unspecified)	-5	0.67
CC1CN(CCCOC2CCCCO2)CCS(=O)(=O)C1 (stereo unspecified)	-7	1.16
CC(C)N(C(=O)CCc1ccc2[nH]ccc2c1)C1CCOCC1	-9	1.19
O=C1OC(C(=O)N2CCCC2c2ccncc2)Cc2ccccc21 (stereo unspecified)	-1	0.1
Nc1ccc(-c2noc(C(F)(F)F)n2)cn1	11	-2
CC(C)(C)C(=O)NCCn1cccnc1=O	9	-1.12
O=S1(=O)CC[C@H](CCc2cccc3cc[nH]c23)C1	6	-0.73
CCc1cccc(NC(=O)Cn2c3ccccc3n3c(=O)cc(-c4ccc(F)cc4)nc23)c1	-4	0.51
Cc1nc2n(CCN3CCOCC3)c3ccccc3n2n1	32	-3.68
O=C(Nc1c2c(nc3ccccc13)CCCC2)c1ccccc1Cl	9	-1.25
CC[C@H](NC(=O)Nc1ccc(N(C)C)cc1C)c1nc(-c2ccccc2)c[nH]1	-10	1.65
CC(=O)Nc1nc2ccc(NC(=O)c3ccnn3C)cc2s1	-6	0.59
CNS(=O)(=O)C1CCN(CC(=O)NC2CCCC(C)C2C)CC1 (stereo unspecified)	9	-1.47
O=C(Cn1cnc2ccccc21)N1CCC(N2CCC[C@@H]2COCc2ccccc2)CC1	-12	2.19
c1cc(-c2cnc3cncn3c2)ccc1OC[C@H]1CCCCO1	-11	1.39
